Measurements reported in PubChem BioAssay AID360 (National Center for Advancing Translational Sciences (NCATS), 2006).
The whole screen tested about 48,000 compounds, of which about 550 (1.1%) were called active. Not shown: some 4% with an inconclusive outcome. No stated cut-off is given here; in the data, active means potency below about 15 µM; inconclusive means mostly about 16 µM to 33 µM; inactive means weaker than that. This is one part of the list.

molecular target: Lysosomal acid glucosylceramidase (Homo sapiens) (UniProt P04062); assay: Glucocerebrosidase; settings: purified enzyme, resorufin glucoside fluorescence (screen aimed at inhibitors), 20 min;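 further: the screen sought inhibitors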
Procedure, shortened: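 Wild-type enzyme at 0.2 nM final in 50mM citric acid/KH2PO4, 10mM sodium taurocholate, 0.01% tween-20, pH 5.9, with resorufin beta-D-glucopyranoside at 30 uM final. Compounds titrated, 20 min at RT, red fluorescence read; AC50 from titration.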
Potency means the concentration at half of the fitted maximal effect.

UniProt P04062, sequence (P04062 whole entry, looked up): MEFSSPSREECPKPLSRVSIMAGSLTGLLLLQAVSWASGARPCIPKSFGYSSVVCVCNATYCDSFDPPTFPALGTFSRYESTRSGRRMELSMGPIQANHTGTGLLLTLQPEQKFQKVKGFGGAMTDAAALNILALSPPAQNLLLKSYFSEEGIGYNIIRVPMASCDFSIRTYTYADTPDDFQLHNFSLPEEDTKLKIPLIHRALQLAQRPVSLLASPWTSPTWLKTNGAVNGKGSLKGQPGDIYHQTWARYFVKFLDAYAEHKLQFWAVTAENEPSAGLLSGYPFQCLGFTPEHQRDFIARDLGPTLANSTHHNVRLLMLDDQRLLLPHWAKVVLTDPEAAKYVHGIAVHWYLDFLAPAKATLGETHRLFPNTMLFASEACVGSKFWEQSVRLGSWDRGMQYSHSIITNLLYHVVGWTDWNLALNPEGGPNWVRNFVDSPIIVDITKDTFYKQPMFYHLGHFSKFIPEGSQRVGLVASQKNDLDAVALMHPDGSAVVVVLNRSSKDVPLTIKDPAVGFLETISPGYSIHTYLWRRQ

Potency, inactive:
c1csc(-c2nnc(-c3ccc(N4CCOCC4)cc3)o2)c1 > 76.9 µM, N#Cc1c(/N=C/c2ccco2)sc2c1CCC2 > 76.9 µM, CCOc1ccc(-c2nnc(NC(=O)CCCOc3cccc(C)c3)o2)cc1 > 76.9 µM, CC(C)OC(=O)CSc1nnc(CNc2nc(-c3ccccc3)cs2)n1C > 76.9 µM, CCNC(=O)CSc1nc2ccccc2c(=O)n1OC > 76.9 µM, CCN(CC)S(=O)(=O)N1CCC(C(=O)NC2CCCc3ccccc32)CC1 (centres undefined) > 76.9 µM, CCCCc1cc(=O)oc2c(CN(C)C)c(O)ccc12 > 76.9 µM, CCOc1ccc(S(=O)(=O)NCCC(=O)OCN2C(=O)c3ccccc3C2=O)cc1 > 76.9 µM, CCOC(=O)c1cc2c(ccn2-c2ccc(F)cc2)n1CC(=O)N1CCN(C(=O)c2ccco2)CC1 > 76.9 µM, CCOC(=O)N1CCN(c2c(NCCCN(CC)Cc3ccccc3)c(=O)c2=O)CC1 > 76.9 µM, COc1ccccc1-c1ccc(=O)n(CC(=O)NCc2ccc3c(c2)OCO3)n1 > 76.9 µM, CCN1CCN(Cc2c(O)ccc3c(=O)c(-c4ccccc4OC)coc23)CC1 > 76.9 µM, CCC1CCCCN1Cc1ccc(CNS(=O)(=O)c2ccc3c(c2)oc(=O)n3C)o1 (centres undefined) > 76.9 µM, Cc1cccc(OCc2nnc(SCC(=O)Nc3sc(C)c(C)c3C#N)n2C)c1 > 76.9 µM, O=C(Nc1cc(C(F)(F)F)ccc1N1CCCC1)c1cccnc1 > 76.9 µM, Cc1noc(C)c1COC(=O)Cc1ccc(Cl)cc1 > 76.9 µM, CC(C)c1nnc(SCC(=O)NCc2ccco2)n1C > 76.9 µM, CCN(CC)S(=O)(=O)c1ccc(-c2nnc(SCC(=O)N3CCOCC3)o2)cc1 > 76.9 µM, CC(C)C(c1nnnn1Cc1ccc(F)cc1)N1CCN(Cc2ccc3c(c2)OCO3)CC1 (centres undefined) > 76.9 µM, CCOC(=O)N1CCN(C(=O)CNS(=O)(=O)c2cccs2)CC1 > 76.9 µM, CCSc1nnc(NC(=O)CSc2nc3c(c(=O)n2CC)SC(C)C3)s1 (centres undefined) > 76.9 µM, CSCC[C@H](NC(=O)Nc1ccc(C)cc1)C(=O)O > 76.9 µM, CC1S/C(=C(\C#N)C(=O)NCc2ccco2)N(Cc2ccco2)C1=O (centres undefined) > 76.9 µM, O=S(=O)(NC1CC1)c1ccc(S(=O)(=O)N2CCc3ccccc32)cc1 > 76.9 µM, COc1ccc(-c2nc(CSCC(=O)NCC3CCCO3)c(C)o2)cc1OC (centres undefined) > 76.9 µM, COC(=O)c1ccc(COc2ccc3c4c(c(=O)oc3c2)CCC4)o1 > 76.9 µM, CCC(C)C(=O)Nc1cc(C(=O)OC)cc(C(=O)OC)c1 (centres undefined) > 76.9 µM, Cc1cccc(-c2nc(C#N)c(N3CCCCCC3)o2)c1 > 76.9 µM, COc1ccccc1OCc1ccc(C(=O)NC(C)(C)C)o1 > 76.9 µM, CSc1ccccc1NC(=O)c1ccco1 > 76.9 µM, CCn1c2ccccc2c2cc(NC(=O)COC(=O)Cc3cn4ccsc4n3)ccc21 > 76.9 µM, C=C(C)CSc1nc2nc(C)cc(C)n2n1 > 76.9 µM, CCn1c(=O)n(CC)c2cc(S(=O)(=O)NCCOc3ccccc3)c(C)cc21 > 76.9 µM, CS(=O)(=O)N(CC(=O)NCC1CCCO1)Cc1ccc(Cl)cc1 (centres undefined) > 76.9 µM, O=C(CSc1nnc(-c2ccc(F)cc2)o1)c1ccc2c(c1)OCCO2 > 76.9 µM, Oc1ccc(-c2nc3ncccn3c2Nc2ccc3c(c2)OCO3)cc1 > 76.9 µM, c1ccc(-c2ncnc3nc4n(c23)CCC4)cc1 > 76.9 µM, COc1ccccc1C1/C(=C(\O)c2c(C)nc3c(C)cccn23)C(=O)C(=O)N1CCCN(C)C (centres undefined) > 76.9 µM, COc1cccc(NC(=O)CSCc2n[nH]c(=O)[nH]2)c1 > 76.9 µM, CC(C)(C)NC(=O)C(Cc1ccccc1)NS(=O)(=O)c1ccc2c(c1)CCC(=O)N2 (centres undefined), CCN(c1ccccc1)S(=O)(=O)c1ccc(F)c(C(=O)O)c1 > 76.9 µM, CCOc1ccc(C(C)(C)C)cc1S(=O)(=O)N1CC(C)OC(C)C1 (centres undefined) > 76.9 µM, CC(=O)NCCc1ccc(S(=O)(=O)N2CCOCC2)cc1 > 76.9 µM, Clc1ccc2c(N3CCCC3)ccnc2c1 > 76.9 µM, O=C1c2ccccc2N2C(=O)c3ccccc3C2N1O (centres undefined) > 76.9 µM, O=C(C1CCCCC1)N(Cc1nc2sc3c(c2c(=O)[nH]1)CCCC3)Cc1cccs1 > 76.9 µM, Nc1ccc(CCS(N)(=O)=O)cc1 > 76.9 µM, CCOC(=O)c1sc(=S)n(-c2cccc(OC)c2)c1N > 76.9 µM, CC(C)(C#N)Nn1cnnc1 > 76.9 µM, Cc1ccc(CNC(=O)c2coc(=O)c3ccccc23)o1 > 76.9 µM, COc1ccccc1C(=O)Nc1ccc(N2CCN(S(C)(=O)=O)CC2)cc1 > 76.9 µM, O=C(O)C1C2CCC(C2)C1C(=O)Nc1nc2ccccc2s1 (centres undefined) > 76.9 µM, COc1cccc(-c2nc(-c3ccccc3)no2)c1, O=C(CN1CCN(S(=O)(=O)c2ccccc2)CC1)Nc1ccc2c(c1)OCO2 > 76.9 µM, O=c1c2cnn(-c3ccccc3)c2ncn1Cc1ccccc1 > 76.9 µM, CCn1cc(NC(=O)Nc2ccc(OC)c(OC)c2)c(C(N)=O)n1 > 76.9 µM, COc1cc(Cl)ccc1S(=O)(=O)n1nc(C)cc1C > 76.9 µM, CSc1nsc(SCC(=O)Nc2ccc3c(c2)OCCO3)n1 > 76.9 µM, Cc1nn(-c2ccccc2)c(=S)n1-c1ccccc1 > 76.9 µM
